Test results as given in ChEMBL document CHEMBL5303300, “EUbOPEN Chemogenomics Library - Multiplex” (2023).

How the values were obtained:
U2OS = experiment: Multiplex assay against U2OS; format: toxicity, cell-based; settings: human, number of replicates 2
Outline: (§1)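 Live cells were stained at seeding with Hoechst33342, BioTracker Green Microtubule Cytoskeleton Dye, MitoTracker Red and Annexin V Alexa Fluor 680. Following compound addition, they were imaged on a CQ1 microscope at 37°C and 5% CO2 and gated by CellPathfinder machine learning into Hoechst high-intensity objects or normal cells, with normal cells split into healthy, pyknosed or fragmented nuclei and pyknosed cells into mitotic or apoptotic. Tubulin, mitochondrial-mass and membrane-permeability phenotypes are per cents of healthy-nucleus cells.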

Fibroblast = experiment: Multiplex assay against human fibroblast; format: toxicity, cell-based; settings: number of replicates 2; outline: as §1
[1] = 12 h, 1 µM, compound concentration 1 uM
[2] = 12 h, 10 µM, compound concentration 10 uM
[3] = 24 h, 1 µM, compound concentration 1 uM
[4] = 24 h, 10 µM, compound concentration 10 uM
[5] = 48 h, 1 µM, compound concentration 1 uM
[6] = 48 h, 10 µM, compound concentration 10 uM

Row | SMILES | Total Cell Count (U2OS; [1]) | Population Fragmented Nuclei (%) (U2OS; [2]) | Total Cell Count (U2OS; [2]) | Total Cell Count (U2OS; [3]) | Population Fragmented Nuclei (%) (U2OS; [4]) | Total Cell Count (U2OS; [4]) | Total Cell Count (U2OS; [5]) | Population Fragmented Nuclei (%) (U2OS; [6]) | Total Cell Count (U2OS; [6]) | Population Fragmented Nuclei (%) (U2OS; [1]) | Population Fragmented Nuclei (%) (U2OS; [3]) | other results
1 | Cc1cccc(S(=O)(=O)N(C)[C@H](C)CCN2CCC(C)CC2)c1.Cl | 218 and 34 | 15% and 2% | 13 and 230 | 292 and 39 | 22% and 1% | 22 and 338 | 575 and 79 | 2% and 20% | 652 and 29 |  |  | Population Mitotic Cells (%) (U2OS; [1]): 27% and 0%; Population Tubulin-Different-Phenotype (%) (U2OS; [1]): 79% and 25%; Population Pyknosed Nuclei (%) (U2OS; [2]): 30% and 7%; Population Tubulin-Different-Phenotype (%) (U2OS; [3]): 78% and 25%; Population Pyknosed Nuclei (%) (U2OS; [4]): 22% and 6%; Population Membrane Permeable-Phenotype (%) (U2OS; [6]): 2% and 13%; Population Pyknosed Nuclei (%) (U2OS; [6]): 5% and 27%; Population Tubulin-Different-Phenotype (%) (Fibroblast; [4]): 28% and 8%; Population Tubulin-Different-Phenotype (%) (Fibroblast; [5]): 14% and 2%; Population Tubulin-Different-Phenotype (%) (Fibroblast; [6]): 18% and 5%
2 | COc1ccc(NC(=O)c2ccc(-c3ccc(-c4noc(C)n4)cc3C)cc2)cc1OCCN(C)C.Cl | 31 and 173 |  | 233 and 39 | 37 and 222 |  | 37 and 239 | 50 and 354 |  | 38 and 217 | 22% and 4% | 19% and 5% | Population Membrane Permeable-Phenotype (%) (Fibroblast; [1]): 7% and 22%; Population Apoptotic (%) (Fibroblast; [2]): 81% and 24%; Population Mitotic Cells (%) (Fibroblast; [2]): 18% and 75%; Population Membrane Permeable-Phenotype (%) (Fibroblast; [4]): 33% and 0%; Population Membrane Permeable-Phenotype (%) (Fibroblast; [6]): 43% and 12%
3 | CN(C)CC#Cc1ccc2[nH]c3c(c2c1)-c1nc(N)ncc1CCC3 | 57 and 191 | 60% and 11% | 30 and 302 | 64 and 264 | 60% and 10% | 35 and 317 | 101 and 390 | 69% and 14% | 52 and 428 |  |  | Population Mitotic Cells (%) (U2OS; [1]): 0% and 61%; Population Pyknosed Nuclei (%) (U2OS; [2]): 6% and 32%; Population Pyknosed Nuclei (%) (U2OS; [4]): 8% and 50%; Population Pyknosed Nuclei (%) (U2OS; [6]): 11% and 36%; Population Apoptotic (%) (Fibroblast; [2]): 38% and 10%
4 | COc1cc(C(=O)NC2CCN(C)CC2)ccc1Nc1ncc(C(F)(F)F)c(NCc2ccc(C)cc2N(C)S(C)(=O)=O)n1.O=CO.O=CO | 64 and 272 | 27% and 7% | 52 and 213 | 66 and 354 | 50% and 13% | 60 and 209 | 91 and 453 | 45% and 14% | 55 and 207 |  |  | Population Mitochondria Different-Phenotype (%) (U2OS; [1]): 3% and 24%; Population Membrane Permeable-Phenotype (%) (Fibroblast; [4]): 23% and 3%
5 | CCCNc1ccc2ncc(-c3ccncc3)n2n1 | 29 and 241 | 40% and 9% | 45 and 153 | 42 and 328 | 42% and 13% | 45 and 161 | 60 and 620 | 47% and 11% | 55 and 166 | 24% and 3% | 21% and 2% | Population Fragmented Nuclei (%) (U2OS; [5]): 16% and 4%; Population Membrane Permeable-Phenotype (%) (U2OS; [6]): 38% and 11%; Population Tubulin-Different-Phenotype (%) (Fibroblast; [5]): 27% and 8%
6 | CN(C)CCN(Cc1ccc(-c2ccc(CNCCc3ccccc3)cc2)cc1)C(=O)CCC1CCCC1.Cl.Cl | 34 and 203 |  | 26 and 141 | 252 and 43 | 19% and 5% | 26 and 138 | 50 and 357 |  | 24 and 129 |  |  | Population Membrane Permeable-Phenotype (%) (U2OS; [5]): 29% and 8%; Population Mitochondria Different-Phenotype (%) (U2OS; [5]): 47% and 13%; Population Healthy Nuclei (%) (U2OS; [6]): 25% and 5%; Population Membrane Permeable-Phenotype (%) (Fibroblast; [2]): 50% and 0%; Population Mitochondria Different-Phenotype (%) (Fibroblast; [2]): 33% and 100%; Population Mitochondria Different-Phenotype (%) (Fibroblast; [4]): 0% and 33%; Population Tubulin-Different-Phenotype (%) (Fibroblast; [4]): 0% and 100%
7 | CN[C@@H]1C[C@H]2O[C@@](C)([C@@H]1OC)n1c3ccccc3c3c4c(c5c6ccccc6n2c5c31)C(=O)NC4 [STAUROSPORINE] |  |  |  |  |  |  |  | 34, 43, 13, 21% |  |  |  | Population Healthy Nuclei (%) (U2OS; [2]): 11, 19, 8, 6%; Population Membrane Permeable-Phenotype (%) (U2OS; [4]): 100, 85, 87, 20%
8 | Cc1ccc2c(c1CCC(=O)O)CC[C@@H](NS(=O)(=O)c1ccc(Cl)cc1)C2 [TERUTROBAN] | 211 and 38 |  | 59 and 207 | 34 and 291 |  | 71 and 313 | 68 and 617 |  | 110 and 632 | 4% and 36% | 32% and 3% | Population Fragmented Nuclei (%) (U2OS; [5]): 22% and 2%

Not every entry of the source has a single result; some have several. The list is limited to them. There may be further records. The records of an entry are repeats in other runs, samples, wells, individuals or studies.
